Out of some 310,000 compounds screened, about 14,000 (4.5%) showed an effect of 50% or more. The effect is printed as a negative number. Some of the results follow.
target: human ether-à-go-go-related gene (hERG) potassium channel (human, UniProt Q12809); assay: primary screen, population patch clamp on CHO cells stably expressing hERG
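Note: peak tail current of the secondary pulse compared with the same well before compound.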

Chain of human ether-à-go-go-related gene (hERG) potassium channel (Q12809 whole entry, looked up): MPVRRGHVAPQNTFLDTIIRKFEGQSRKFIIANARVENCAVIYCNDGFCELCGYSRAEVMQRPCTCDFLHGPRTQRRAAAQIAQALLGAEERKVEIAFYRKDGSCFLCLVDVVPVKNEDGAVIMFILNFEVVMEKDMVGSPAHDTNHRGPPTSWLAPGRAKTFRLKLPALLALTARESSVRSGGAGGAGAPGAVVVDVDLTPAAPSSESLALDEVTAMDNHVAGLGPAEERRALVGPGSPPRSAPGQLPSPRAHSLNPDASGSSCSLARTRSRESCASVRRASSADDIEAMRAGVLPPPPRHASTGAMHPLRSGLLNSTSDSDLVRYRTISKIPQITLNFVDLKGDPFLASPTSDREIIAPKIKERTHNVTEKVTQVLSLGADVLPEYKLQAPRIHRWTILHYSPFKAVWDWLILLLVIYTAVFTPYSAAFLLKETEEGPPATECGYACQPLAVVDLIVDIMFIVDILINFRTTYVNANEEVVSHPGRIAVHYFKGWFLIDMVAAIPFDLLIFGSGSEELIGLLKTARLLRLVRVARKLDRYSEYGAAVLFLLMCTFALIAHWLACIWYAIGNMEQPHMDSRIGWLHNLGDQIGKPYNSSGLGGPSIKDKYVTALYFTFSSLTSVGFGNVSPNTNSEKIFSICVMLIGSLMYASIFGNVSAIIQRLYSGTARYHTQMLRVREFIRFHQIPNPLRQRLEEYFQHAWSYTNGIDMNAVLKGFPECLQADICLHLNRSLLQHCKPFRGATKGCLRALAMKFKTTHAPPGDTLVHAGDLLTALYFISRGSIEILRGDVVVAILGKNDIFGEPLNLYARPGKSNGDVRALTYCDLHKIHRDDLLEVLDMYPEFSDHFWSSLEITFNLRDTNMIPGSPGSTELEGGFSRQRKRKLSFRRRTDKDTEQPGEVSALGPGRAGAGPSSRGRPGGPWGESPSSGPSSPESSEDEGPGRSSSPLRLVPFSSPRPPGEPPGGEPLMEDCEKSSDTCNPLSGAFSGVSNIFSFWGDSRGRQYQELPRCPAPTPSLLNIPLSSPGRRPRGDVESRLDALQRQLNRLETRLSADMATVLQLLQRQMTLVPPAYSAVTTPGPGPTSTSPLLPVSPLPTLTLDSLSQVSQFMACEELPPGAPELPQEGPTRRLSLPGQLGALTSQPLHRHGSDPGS

Row | Compound | hERG current change (%, negative = inhibition) at 10uM
1 | NC(=O)c1ccsc1NC(=O)COC(=O)c1cc(Cl)ccc1O | -2.09%
2 | COc1ccccc1NC(=O)COC(=O)c1ccc([N+](=O)[O-])s1 | -3.31%
3 | CNc1ccc(Br)cc(C(=O)/C=C/c2cccc(OC)c2OC)c1=O | -11.2%
4 | CCOC(=O)c1c(NC(=O)CN2CCCc3ccccc32)sc(C(C)=O)c1C | 5.24%
5 | CN(C)c1ccc(/C=N/NC(=O)CCCCCNC(=O)c2ccccc2)cc1 | -18.6%
6 | O=C(c1cc(-c2ccco2)on1)N1CCCc2ccccc21 | 5.89%
7 | Cc1ccc(NC(=O)/C(=C/c2cccs2)NC(=O)c2ccco2)c(C)c1 | -9.56%
8 | O=C(Cn1cc2c(n1)CCCC2)NCCc1ccccc1 | 2.36%
9 | O=C(O)c1ccccc1OC(=O)C12CC3CC(CC(C3)C1)C2 | 18.1%
10 | CCCCc1ccc(-c2ccc(C)cc2O)nc1 | -18.3%
11 | CC(=O)Nc1ccc(C(=O)OCC(=O)c2ccc(S(=O)(=O)N3CCCCC3)cc2)cc1 | 2.62%
12 | COc1cc2c(-c3ccc(O)cc3)nc3c(c(C)nn3-c3ccccc3)c2cc1OC | 11.5%
13 | Cc1ccsc1C(=O)Nc1nc2ccccc2[nH]1 | 4.88%
14 | O=C(N/N=C/c1ccccc1C(=O)O)C(=O)N1CCCCC1 | 18.2%
15 | COc1ccc(NC(=O)CCOc2ccc(C)cc2)cc1S(=O)(=O)N1CCCCC1 | -24.2%
16 | Cc1ccc2cc(C#N)c(NCc3ccco3)nc2c1 | 9.87%
17 | COc1ccc(/C=N/NC(=O)CCSc2nc3ccccc3s2)cc1OC | -12.8%
18 | O=C(COC(=O)c1ccc2ncsc2c1)NC(=O)c1ccccc1 | 23.7%
19 | CCN1C(=NCCc2cccs2)N[C@@H](c2cccs2)C(C(=O)OC)=C1C | -64.2%
20 | CSCC[C@H](NC(=O)C1CCC(CNC(=O)[C@@H]2CCCN2)CC1)C(=O)O.Cl (stereo partly shown) | 9.86%
21 | Cc1cc2c(c(SCC(=O)N(C)c3ccccc3)n1)C(=O)OC2 | 2.8%
22 | CSc1nnc(-c2ccccc2)o1 | -5.33%

Row | Compound | hERG current change (%, negative = inhibition) at 10uM
23 | CCOC(=O)N=Nc1c(O)n(CC)c2ccccc12 | -1.8%
24 | COc1ccc(C(=O)NNC2CC(=O)N(Cc3ccccc3)C2=O)cc1OC (stereo not shown) | -9.35%
25 | CC(=O)c1c(C)nc(-c2ccc(OCC(=O)Nc3ccccc3)cc2)n1O | 9.07%
26 | COc1ccccc1CNC(=O)COC(=O)c1cc(=O)[nH]c2ccccc12 | 1.03%
27 | Cc1nnc(C)n1/N=C/c1ccccn1 | -24.8%
28 | COc1ccc(CCN(C)C(=O)c2c(C)nn(-c3ccccc3)c2C)cc1OC | 17.7%
29 | Cc1ccc(OCC(=O)N2CCCCCC2)c(C)c1 | 4.77%
30 | COc1ccc(N2CCN(C(CNS(=O)(=O)c3cc(F)ccc3F)c3cccnc3)CC2)cc1 (stereo not shown) | -69%
31 | O=C(CSc1nnc(COc2ccc(Cl)cc2)o1)OC1CCCCC1 | 3.24%
32 | C=CCn1c(SCC(=O)N2CCOCC2)nc(O)c(Cc2ccccc2)c1=O | 15.4%
33 | COc1ccc(CCNc2ccc(S(=O)(=O)N3CCCC3)cc2[N+](=O)[O-])cc1 | 6.78%
34 | CC(C)CC(=O)NNC(=S)Nc1ccc(S(N)(=O)=O)cc1 | 16.7%
35 | Cc1nc(C(=O)NNC(=O)c2ccc(C(F)(F)F)cc2)cs1 | 3.56%
36 | CSc1ccc(CN2CCN(C3CCCC3)C(CCO)C2)cc1 (stereo not shown) | -53.8%
37 | O=C(NCc1ccccn1)c1ccc(NC(=O)c2ccco2)cc1 | -0.238%
38 | O=C(NCc1ccco1)c1cc(S(=O)(=O)N2CCOCC2)ccc1Cl | -24.4%
39 | CC(=O)Nc1ccc(S(=O)(=O)NCCCN2CCN(Cc3ccccc3)CC2)cc1Cl | -18.9%
40 | CC(=O)Nc1ccc(Nc2nc(C(F)(F)F)nc3c2nnn3Cc2ccccc2Cl)cc1 | 14.9%
41 | NC(=O)CSc1ncc(-c2ccccc2)[nH]1 | 13.3%
42 | CC(C)(Sc1cc(C(C)(C)C)c(O)c(C(C)(C)C)c1)Sc1cc(C(C)(C)C)c(O)c(C(C)(C)C)c1 | 22%
43 | COc1cccc(CN(C)CC(O)COC(c2ccccc2)c2ccccc2C)c1 (stereo not shown) | -72.1%
44 | COC(=O)c1c[nH]n2c(=O)c(Cc3ccc(F)cc3Cl)c(C)nc12 | -8.9%

Row | Compound | hERG current change (%, negative = inhibition) at 10uM
45 | Nc1nnnn1/N=C/c1ccc(N2CCCCC2)c([N+](=O)[O-])c1 | 6.54%
46 | CC(=O)c1sc(NC(=O)c2cccc(C)c2)nc1C | 14.6%
47 | O=C(O)Cc1c(O)ccc2ccccc12 | 8.27%
48 | CN(Cc1ccc(F)cc1)C(=O)CNC(=O)c1cccs1 | 8.07%
49 | CC(=O)Nc1ccc(NC(=O)C(Sc2ccccc2)c2ccccc2)cc1 (stereo not shown) | 7.38%
50 | CC(C)c1ccc(NC(=O)NCc2ccccn2)cc1 | 16.4%
51 | CCOC(=O)/C(C#N)=C/c1cn(CCC(=O)O)nc1-c1ccc(F)cc1 | 4.24%
52 | CN(Cc1ccc(C(F)(F)F)cc1)C(=O)c1ccc2ccccc2n1 | -14.3%
53 | CCOC(=O)C1=C(COC(=O)COc2ccc(C(C)=O)cc2)NC(=O)NC1C (stereo not shown) | 1.71%
54 | N#Cc1c(-c2cccs2)nc(SCC(=O)c2cccs2)[nH]c1=O | -2.99%
55 | CCCCn1c(N)c(N(CC(C)C)C(=O)C2CCN(C(=O)c3ccc(F)cc3)CC2)c(=O)[nH]c1=O | -3.7%
56 | COC(CNS(=O)(=O)c1ccc(S(=O)(=O)N2CCCC2)cc1)OC | 5.43%
57 | O=C(NC1CC1)C1=C[C@@H](c2coc3ccccc3c2=O)C[C@@H](OCCCCO)O1 | -23.8%
58 | COc1cc(/C=N\NC(C)=O)ccc1OC/C=C/c1ccccc1 | 19.9%
59 | O=C(CN(c1ccccc1F)S(=O)(=O)c1ccccc1)Nc1ccc2c(c1)OCCO2 | 9.5%
60 | CCCCn1c(SCC(=O)Nc2cc(C)on2)nnc1-c1ccncc1 | -2.69%
61 | CCc1cc2cc(C)c(C)cc2nc1SCC(=O)Nc1cc(C)on1 | 10.5%
62 | CCS(=O)(=O)NCc1csc(C)n1 | -3.59%
63 | O=C(Nc1ccnn1C1CCN(Cc2cccc(OCCO)c2)CC1)c1cccc(F)c1 | -12.3%
64 | COc1ccc(NC(C)=O)cc1NC(=O)c1cccc(S(=O)(=O)N2CCN(Cc3ccccc3)CC2)c1 | -27.8%
65 | O=C(NCCc1ccccc1)c1ccc(NC2=NC3CS(=O)(=O)CC3S2)cc1 (stereo not shown) | 1.97%
66 | CSc1ccc(CNc2ccc(C)cc2)cc1 | 7.52%

Row | Compound | hERG current change (%, negative = inhibition) at 10uM
67 | CN(C)c1cccc(C(=O)N(Cc2ccccc2)Cc2ccccc2)c1 | 6.05%
68 | COc1ccc(NC(=O)CC2C(=O)N(c3cccc(OC)c3)C(=O)N2Cc2ccco2)cc1 (stereo not shown) | -20.9%
69 | CCN1C(=NCc2ccc(OC)cc2)N[C@@H](CCc2ccccc2)[C@H](C(=O)NCc2ccc(OC)cc2)[C@H]1C | -65.4%
70 | CN(C)c1cc[n+](CC(=O)Nc2ccccc2C(F)(F)F)cc1.[Cl-] | 4.83%
71 | O=C1CCCN1CCCNC(=S)Nc1ccc(F)c(Cl)c1 | -5.32%
72 | C[C@@H]1C[C@H](O)c2cc(Cl)ccc2N1 | 2.62%
73 | COc1ccc(-c2cn[nH]c2-c2ccc(OCc3ccc([N+](=O)[O-])cc3)cc2O)cc1OC | 7.08%
74 | O=C(c1cccc([N+](=O)[O-])c1)N1CCN(c2n[nH]c(=O)[nH]c2=O)CC1 | 7.6%
75 | O=c1ccc2ccc(O[C@@H]3O[C@H](CO[C@@H]4OC[C@](O)(CO)[C@H]4O)[C@@H](O)[C@H](O)[C@H]3O)cc2o1 | 22.8%
76 | Cc1cc(/C=C2/NC(=S)NC2=O)c(C)n1-c1cccnc1 | 8.26%
77 | COCCNC(=S)N/N=C(\C)c1ccccc1OC | 3.66%
78 | CNC(=O)N(O)C1N(C)C(=O)N(Cc2ccccc2)C1(C)C (stereo not shown) | 2.41%
79 | C/C(=N\NC(=O)c1cccs1)c1cccnc1 | 7.31%
80 | COc1cccc(-c2cc(C(=O)N/N=C/c3ccco3)c3ccccc3n2)c1 | -2.76%
81 | COc1ccc(NC(=O)Nc2cc(F)ccc2C)cc1 | 34.1%
82 | Cc1cccnc1CN1CCN(C(=O)c2cc(COc3ccc4ncccc4c3)on2)CC1 | 12.8%
83 | CN(C(=O)COC(=O)c1ccc(Cl)nc1)C1CCS(=O)(=O)C1 (stereo not shown) | 16.2%
84 | O=C(COC(=O)C1CCN(S(=O)(=O)c2cccs2)CC1)c1ccc2c(c1)OCCO2 | 15.1%
85 | Cc1n[nH]c(=O)nc1NCC1CCCO1 (stereo not shown) | -20.8%
86 | COc1ccc(-c2nn(-c3ccccc3)cc2/C=N/NC(=O)c2ccc3c(c2)OCO3)cc1 | 4.83%
87 | Cc1ccc(NC(=O)CC2S/C(=N/N=C3\CCCc4ccccc43)NC2=O)cc1 (stereo not shown) | 8.91%
88 | NNC(=O)CCC(=O)Nc1ccccc1 | 4.03%
